Reference: PubChem BioAssay AID1347073 (National Center for Advancing Translational Sciences (NCATS), 2019)
In all, about 45,000 compounds went through this assay and about 200 (0.44%) were called active. Not shown: some 7% with an inconclusive outcome. Calls follow the shape of the dose curve; as a rule, active = well fitted activation curve with a large enough effect; inconclusive = small, poorly fitted or top-dose-only effect; inactive = no such curve, though single readings can be large or run the other way. This is one part of the list.

test: qHTS of TDP-43 Inhibitors: NCGC Sytravon Library Screen; conditions: yeast TDP-43 toxicity rescue, BacTiter-Glo growth, 24 h; series mostly up to 46.1 µM; growth rescue (activation): at the top concentration; also: 0% is about no effect; nearly all actives have a fitted effect of over 55% in size
Summary of the method: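 TDP-43-expressing yeast, pregrown in raffinose, seeded at OD600 0.02 in galactose medium with compound for 24 hr at 30 deg C. Growth read by BacTiter-Glo luminescence, so rescue of toxicity appears as activation.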

Row | SMILES | growth rescue (activation)
1 | CN1N=C(C(=O)N=c2sc3ccccc3n2C)CCC1=O | inactive: -11.7%
2 | CNS(=O)(=O)c1cccc(C(=O)OCC(=O)/C=C2/N(C)c3ccccc3C2(C)C)c1 | inactive: -16.3%
3 | CN(C)/C=C/C(=O)c1ccc(Oc2ccccc2)cc1 | inactive: -94.6%
4 | O=C1c2oc3ccccc3c(=O)c2C(c2cccc(Cl)c2)N1c1ccccn1 (stereo not drawn) | inactive: 8.42%
5 | O=C(Nc1ccc(Br)cc1)c1cccc(N2C(=O)C3C4CCC(C4)C3C2=O)c1 (stereo not drawn) | inactive: 6.47%
6 | CCC(=O)N(CCC(Cc1ccccc1)c1ccc2c(c1)OCO2)Cc1ccccc1F (stereo not drawn) | inactive: 18.7%
7 | COc1ccc2[nH]c3c(=O)n(Cc4ccc(C(=O)N5CCC(C(N)=O)CC5)cc4)c(=S)[nH]c3c2c1 | inactive: -1.39%
8 | CCN(CC)S(=O)(=O)c1ccc(N(C)C)c(NC(=O)CC(NC(C)=O)c2ccccc2)c1 (stereo not drawn) | inactive: -12.9%
9 | CCc1nnc(SCc2cn3c(C)cc(C)nc3n2)n1N | inactive: 25.8%
10 | COc1ccc(C(=O)Nc2ccc(NC(=O)Cc3ccccc3)cn2)cc1 | inactive: 9.59%
11 | COc1ccc(NC(=O)CCCN2C(=O)COc3ccc(C)cc32)cc1OC | inactive: 0.708%
12 | COc1ccc(OCC(=O)N/N=C/c2ccncc2)cc1 | inactive: 8.45%
13 | CCC(=O)Nc1ccc(NC(=O)Cc2ccccc2)cn1 | inactive: 20.1%
14 | Cc1cc2oc(C(=O)Nc3ccc(S(=O)(=O)N4CCCC(C)C4)cc3)cc(=O)c2cc1Cl (stereo not drawn) | inactive: -6.14%
15 | Cc1ccc(C(=O)NCCCNC(=O)c2ccccc2F)cn1 | inactive: 0.158%
16 | CCOc1ccc(-c2cnc3cccnn23)cc1 | inactive: 22.2%
17 | Cc1ccc(N(CC(=O)NC2CCCCC2)C(=O)CNC(=O)c2ccco2)c(C)c1 | inactive: 4.59%
18 | CNC(=O)C1=C(C)Nc2nc3ccccc3n2C1c1ccc(F)cc1 (stereo not drawn) | inactive: 1.8%
19 | COc1cc(CC(NC(C)=O)C(=O)NC2CCN(C(=O)Nc3ccccc3C)CC2)cc(OC)c1 (stereo not drawn) | inactive: 8.76%
20 | O=C(CCC(=O)Nc1ccc(F)cc1)N/N=C/c1cccnc1 | inactive: 14.1%
21 | Cc1ccccc1C(=O)c1cccn1CC(=O)NCc1cccc(Cl)c1 | inactive: 25.4%
22 | Cn1nc(C(F)(F)F)c2cc(C(=O)N3CCOCC3)sc21 | inactive: 10.5%
23 | COc1ccc(CN(C)C(=O)Cc2ccsc2)c(OC)c1OC | inactive: 3.52%
24 | O=C(CN1C(=O)COc2ccc(S(=O)(=O)N3CCOCC3)cc21)NCc1ccco1 | inactive: -0.457%
25 | Cc1cc([N+](=O)[O-])ccc1NC(=O)c1ccc(NC(=O)C(C)C)cc1 | inactive: 9.96%
26 | Cc1ccc(O)c(C(=O)c2cc(C(=O)NCCc3ccccc3)c(=O)n(CCc3ccccc3)c2)c1 | inactive: 12.9%

Row | SMILES | growth rescue (activation)
27 | O=C(CCCC(=O)N(c1ccc(F)cc1)C(C(=O)NC1CCCC1)c1ccc(O)cc1)Nc1ccccn1 (stereo not drawn) | inactive: 6.17%
28 | COc1ccc(/C=N/n2cnn(Cc3ccccc3Cl)c2=S)cc1OC | inactive: -2.08%
29 | O=C(/C=C/c1ccccc1)C1=C(O)C(=O)N(CCO)C1c1ccccc1[N+](=O)[O-] (stereo not drawn) | inactive: -22.7%
30 | CCCCNC(=O)N(O)C1N(/N=C/c2ccc(N(C)C)cc2)C(=S)SC1(C)C (stereo not drawn) | inactive: 8.66%
31 | COc1ccccc1OCC(=O)Nc1ccccc1C(=O)N1CCCC1 | inactive: -0.738%
32 | Cc1ccc2c(c1)N(CCCC(=O)NCc1cccc(F)c1)C(=O)CO2 | inactive: 26.2%
33 | CCN1CCN(c2cc(C)c3cc(NC(=O)CCC(=O)N4CCN(c5ccccc5OC)CC4)ccc3n2)CC1 | inactive: 7.33%
34 | CN(C)CCCN=Cc1c(-c2ccccc2)[nH]n(-c2nc3ccccc3s2)c1=O | inactive: 12.5%
35 | O=C(NC1CCCC1)C(c1ccc(N2CCOCC2)cc1)N(Cc1ccco1)C(=O)c1ccco1 (stereo not drawn) | inactive: -1.97%
36 | COc1ccc(/C=N/Nc2cc(C)nc3ccc(Br)cc23)cc1 | inactive: 11.3%
37 | C/C(=N\Nc1ccc(Cl)c(C(=O)O)c1)c1cccc2ccccc12 | inactive: -1.87%
38 | Cc1ccc2[nH]c(=O)c(COC(=O)C3CCCCC3)cc2c1 | inactive: 3.28%
39 | COc1cc(/C=C/C(=O)OCC(=O)c2ccc(OC(F)F)cc2)ccc1O | inactive: 0.605%
40 | O=C1NC2(CCCCC2)C(=O)N1Cc1ccc([N+](=O)[O-])cc1 | inactive: 15.5%
41 | CCOC(=O)c1ccc(N2C(=O)CC(N3CCN(Cc4ccccc4)CC3)C2=O)cc1 (stereo not drawn) | inactive: -16.1%
42 | CCOc1cc(/C=N/NC(=O)CCn2nnc3ccccc32)ccc1O | inactive: -13.5%
43 | Cc1ccc(NC(=O)CSc2nc(=O)cc(N)n2CCc2ccccc2)cc1 | inactive: 0.803%
44 | CCCCCCc1cc2cc(C(=O)NC)c(=N)oc2cc1O | inactive: 9.62%
45 | COc1cc2[nH]c(C(=O)N3CC(C)OC(C)C3)cc2c(OC)c1OC (stereo not drawn) | inactive: -16.7%
46 | CC(C)(C)c1cc(NC(=O)c2ccco2)n(-c2ccccc2)n1 | inactive: -8.2%
47 | Cc1cc(C)c(C(=O)NNC(=O)c2cccnc2)c(C)c1 | inactive: 8.23%
48 | CCCCC(=NCCc1c(C)[nH]c2ccccc12)C1=C(O)CC(c2ccccc2)CC1=O (stereo not drawn) | inactive: -0.745%
49 | Cc1nnc(NCc2ccco2)c2ccccc12 | inactive: -19.2%
50 | CC(C)NC(=O)COC(=O)c1cncc(Br)c1 | inactive: -5.46%
51 | CNC(=O)c1cccc(NC(=O)c2ccccc2OCc2ccccc2)c1 | inactive: 23.2%
52 | CCC(C)C1=CC(=Nc2c(C)n(C)n(-c3ccccc3)c2=O)C=C(C(C)CC)C1=O (stereo not drawn) | inactive: 1.22%

Row | SMILES | growth rescue (activation)
53 | CC1CCN(C2=C(NS(=O)(=O)c3ccccc3)C(=O)c3ccccc3C2=O)CC1 | inactive: 6.75%
54 | CN(c1ccc(OCC(=O)OCC(=O)Nc2cccc([N+](=O)[O-])c2)cc1)S(=O)(=O)c1ccc(F)cc1 | inactive: 9.11%
55 | COCCNC(=O)C(c1ccc(O)cc1)N(C(=O)CCC(=O)Nc1nccs1)c1ccc(C)cc1 (stereo not drawn) | inactive: 7.51%
56 | COc1ccc(C(CNC(=O)c2ccc(S(=O)(=O)N(C)C)cc2)N(C)C)cc1 (stereo not drawn) | inactive: -1.57%
57 | Cn1c(=O)c(=O)n(C)c2cc(S(=O)(=O)NCCOc3ccccc3)ccc21 | inactive: -29.3%
58 | NC(=O)COC(=O)[C@@H]1CC(O)CN1S(=O)(=O)c1ccc2c(c1)OCCO2 (stereo partly drawn) | inactive: 4.39%
59 | O=C(N/N=C/c1ccco1)C(O)C(O)C(=O)N/N=C/c1ccco1 (stereo not drawn) | inactive: -20.8%
60 | COc1ccccc1NC(=O)CSc1sc2c(O)cc(=O)[nH]c2c1C#N | inactive: -6.22%
61 | COCC(C)n1c(SCC(=O)NC(=O)NCc2ccccc2)nc2ccccc2c1=O (stereo not drawn) | inactive: 8.01%
62 | Cc1cc2c(cc(C(=O)OC(C)C(=O)NCc3ccc(F)cc3)n2C)o1 (stereo not drawn) | inactive: 6.08%
63 | Cc1ccc(CC(=O)NC2CCCc3ccccc32)cc1C (stereo not drawn) | inactive: 32.4%
64 | O=C(O)c1ccc(NC2=C/C(=N/S(=O)(=O)c3ccccc3)c3ccccc3C2=O)cc1 | inactive: -64.6%
65 | O=C(COC(=O)c1ncc(Cl)c(Cl)c1Cl)NC(=O)NCc1ccccc1 | inactive: 13.3%
66 | CNc1ccc(-c2cccc(C(C)=O)c2)cn1 | inactive: 4.34%
67 | COc1ccc(OCCNC(=O)C2(C)CCN2Cc2ccc3ccccc3c2)cc1 (stereo not drawn) | inactive: -1.42%
68 | COc1ccc(F)cc1-c1cc(C(=O)NC2CCCCC2)[nH]n1 | inactive: 20.7%
69 | O=S(=O)(c1cccc(-c2n[nH]c(=S)n2-c2ccccc2Cl)c1)N1CCOCC1 | inactive: -7.76%
70 | OCCC1CN(Cc2ccc(-n3cccn3)cc2)CCN1Cc1ccccc1 (stereo not drawn) | inactive: 9.56%
71 | CCOC(=O)c1c(CN(CC)CC)n(C)c2cc(Br)c(O)cc12 | inactive: 11.1%
72 | O=C(N/N=C/c1ccccc1)c1ccc(CN2C(=O)c3cccc4cccc2c34)cc1 | inactive: 30%
73 | Cc1c(C(=O)NCc2ccccc2Br)oc2ccc3c(c12)C(=O)CC(C)(C)O3 | inactive: 5.15%
74 | O=C(OCc1nc2ccccc2s1)c1ccc(Br)o1 | inactive: -1.75%
75 | CS(=O)(=O)N1c2cccc3cccc(c23)S1(=O)=O | inactive: 9.64%
76 | CSCCC(NS(=O)(=O)c1ccc(C)cc1C)C(=O)Nc1cccnc1 (stereo not drawn) | inactive: 2.83%
77 | CC(=O)NC(CC(=O)NC1CCCCC1)c1ccccc1 (stereo not drawn) | inactive: 5.69%
78 | COc1ccccc1N1CCN(C(=O)c2cc(S(=O)(=O)N3CCCCC3)ccc2C)CC1 | inactive: 13.5%

Row | SMILES | growth rescue (activation)
79 | CCOc1cc(N2CCOCC2)c(OCC)cc1NC(=O)COC(=O)c1ccccc1OC(F)F | inactive: 14.8%
80 | CC1(C)C(=O)Nc2ccccc2N1C(=O)COC(=O)Cc1ccccc1F | inactive: 21.9%
81 | CCCCc1nc2cc(C(=O)NCCc3cnn(C)c3)ccc2o1 | inactive: 5%
82 | CCSc1nnc(NC(=O)c2cc(C)nc3ccccc23)s1 | inactive: 2.75%
83 | Cc1cccn2c(=O)c(C=C(C#N)C#N)c(N3CCN(C)CC3)nc12 | inactive: -2.92%
84 | COc1ccc(-c2cc(C(=O)Oc3cccc(C)c3C)c3ccccc3n2)cc1 | inactive: -0.424%
85 | O=C(CSc1nnc(-c2ccccc2O)n1-c1ccccc1)Nc1cccc(C(=O)O)c1 | inactive: 12.7%
86 | Cc1ccc(CN2CCN(/N=C/c3cc(Br)cc(Br)c3O)CC2)c(C)c1 | inactive: -13.4%
87 | N#CC1=C(N)Oc2n[nH]c(-c3ccc(F)cc3)c2C1c1ccncc1 (stereo not drawn) | inactive: 16.9%
88 | Cn1c(O)c(N=NC(=O)c2ccco2)c2ccccc21 | inactive: -9.31%
89 | COc1cc(C(=O)OCC(=O)Nc2ccc(C)cc2)cc(OC)c1OC | inactive: 5.84%
90 | CCc1nc2ccccc2n1Cc1ccccc1F | inactive: 3.91%
91 | CN(CC(=O)Nc1ccc(F)cc1)CC(=O)Nc1ccc(Cl)c(S(=O)(=O)N2CCOCC2)c1 | inactive: 22.9%
92 | Cc1c(C(c2cc(O)ccc2O)c2c(C)n(C)n(-c3ccccc3)c2=O)c(=O)n(-c2ccccc2)n1C | inactive: -11.7%
93 | Cc1c(Cl)cccc1NC(=O)CCN1C(=O)C2CC=CCC2C1=O (stereo not drawn) | inactive: 16.9%
94 | O=C(c1ccc(S(=O)(=O)N2CCOCC2)cc1)N(c1cccc(Cl)c1)C1C=CS(=O)(=O)C1 (stereo not drawn) | inactive: 9.06%
95 | CCOC(=O)N1CCN(C(=O)C(CC)n2nc(C)c3sc4ccccc4c3c2=O)CC1 (stereo not drawn) | inactive: -3.01%
96 | O=C(Nc1ccc(N2CCN(C(=O)c3ccc(Cl)cc3)CC2)cc1)c1cccnc1 | inactive: 5.72%
97 | Cc1ccc2cc(C#N)c(N3CCCN(C(=O)c4cnccn4)CC3)nc2c1 | inactive: 2.14%
98 | O=C(O)CCCNS(=O)(=O)c1ccc2c(c1)OCCCO2 | inactive: 10.5%
99 | C/C(CC(C)C)=N\Nc1ccc(S(N)(=O)=O)cc1[N+](=O)[O-] | inactive: 14.1%
100 | COc1ccc(-c2nc3c(c(=O)c4ccccc4n3C)c(=O)n2Cc2ccccc2)cc1 | inactive: -30.7%
101 | CCOC(=O)c1ccc(-n2c(C)nc3ccccc3c2=O)cc1 | inactive: 18.2%
102 | Cc1ccc(S(=O)(=O)N2CCOCC2)cc1C(=O)OCC(=O)NC1CCS(=O)(=O)C1 (stereo not drawn) | inactive: -3.19%
103 | C=CCOC(=O)C1=C(C)N=C2SCCC(=O)N2C1/C=C/c1ccccc1OC (stereo not drawn) | inactive: 8.45%
